Test results published in paper PMC5031558.
Results are given in words; binding and its absence hold for the method and conditions named. For part of these data: In cells and extracts the contact can be indirect. Some binding calls cover weakened binding; strength is not graded here. For part of these data: Tags and fused reporters may be left off the sequences shown. Each block holds one binder with its values, some of them ahead of it.

Assays:
[1] = target: T1, CYLD (endogenous) (human (endogenous in U2OS/NOD2 and HCT116)) (UniProt Q9NQC7); assay: co-IP; immunoprecipitation of endogenous CYLD from U2OS/NOD2 cells, western blot for SPATA2; control IgG as negative control
T1 sequence: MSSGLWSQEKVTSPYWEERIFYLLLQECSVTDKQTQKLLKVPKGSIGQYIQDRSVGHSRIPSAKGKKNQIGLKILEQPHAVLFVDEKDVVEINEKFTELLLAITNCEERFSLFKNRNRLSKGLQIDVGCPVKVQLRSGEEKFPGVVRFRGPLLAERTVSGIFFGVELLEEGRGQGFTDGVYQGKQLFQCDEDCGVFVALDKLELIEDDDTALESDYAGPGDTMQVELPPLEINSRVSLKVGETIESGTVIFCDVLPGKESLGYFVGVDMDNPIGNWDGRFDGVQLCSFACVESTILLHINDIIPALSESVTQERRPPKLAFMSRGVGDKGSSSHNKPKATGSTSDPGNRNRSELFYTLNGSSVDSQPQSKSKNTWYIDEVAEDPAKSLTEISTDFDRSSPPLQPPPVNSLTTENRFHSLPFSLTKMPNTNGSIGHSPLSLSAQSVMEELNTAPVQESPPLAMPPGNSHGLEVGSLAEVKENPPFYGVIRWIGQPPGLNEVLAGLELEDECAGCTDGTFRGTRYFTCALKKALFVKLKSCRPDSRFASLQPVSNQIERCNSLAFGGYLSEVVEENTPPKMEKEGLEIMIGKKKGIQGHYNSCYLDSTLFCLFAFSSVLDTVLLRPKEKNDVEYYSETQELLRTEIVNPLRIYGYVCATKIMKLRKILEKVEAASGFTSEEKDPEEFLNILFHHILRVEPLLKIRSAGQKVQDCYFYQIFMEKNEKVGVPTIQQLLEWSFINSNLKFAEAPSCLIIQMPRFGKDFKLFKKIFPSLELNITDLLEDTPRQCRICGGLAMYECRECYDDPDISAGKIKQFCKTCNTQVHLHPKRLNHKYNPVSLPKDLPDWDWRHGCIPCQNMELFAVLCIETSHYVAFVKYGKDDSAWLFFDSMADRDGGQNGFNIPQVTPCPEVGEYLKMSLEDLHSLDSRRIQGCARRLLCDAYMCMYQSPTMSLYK

[2] = target: T2, FLAG-CYLD wild type (human) (UniProt Q9NQC7); assay: co-IP; immunoprecipitation of transiently expressed FLAG-CYLD variants from WT, CYLD KO or SPATA2 KO U2OS/NOD2 cells, western blot
T2 sequence: T1 sequence

[3] = target: T3, SPATA2 PUB domain (aa 1–241) (UniProt Q9UM82); assay: SEC-MALS; Superdex 75 size-exclusion column; CYLD and SPATA2 PUB variants alone and mixed; both purified
T3 sequence: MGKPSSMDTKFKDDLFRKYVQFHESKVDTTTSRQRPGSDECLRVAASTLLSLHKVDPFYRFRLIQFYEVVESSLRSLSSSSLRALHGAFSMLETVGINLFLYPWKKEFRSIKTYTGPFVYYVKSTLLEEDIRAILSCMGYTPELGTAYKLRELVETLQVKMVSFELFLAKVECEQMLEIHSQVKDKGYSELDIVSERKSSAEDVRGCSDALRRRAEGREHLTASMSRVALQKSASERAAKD

[4] = target: CYLD USP domain I790D (human) (UniProt Q9NQC7); assay: as above
[5] = target: T3, SPATA2 PUB domain (aa 1–241); assay: NMR titration; 15N-labeled B-box domain (aa 778–855) titrated with unlabeled SPATA2 PUB domain; both purified
[6] = target: T3, SPATA2 PUB domain (aa 1–241); assay: SPR; fraction of CYLD variant bound to SPATA2 PUB against varying CYLD concentrations; kinetic and equilibrium fits; both purified

- binding [1]: binds
- binding [2]: binds
B1: SPATA2 (endogenous) (protein, UniProt Q9UM82 1-520)
chain: MGKPSSMDTKFKDDLFRKYVQFHESKVDTTTSRQRPGSDECLRVAASTLLSLHKVDPFYRFRLIQFYEVVESSLRSLSSSSLRALHGAFSMLETVGINLFLYPWKKEFRSIKTYTGPFVYYVKSTLLEEDIRAILSCMGYTPELGTAYKLRELVETLQVKMVSFELFLAKVECEQMLEIHSQVKDKGYSELDIVSERKSSAEDVRGCSDALRRRAEGREHLTASMSRVALQKSASERAAKDYYKPRVTKPSRSVDAYDSYWESRKPPLKASLSLRKEPVATDVGDDLKDEIIRPSPSLLTMASSPHGSPDVLPPASPSNGPALLRGTYFSTQDDVDLYTDSEPRATYRRQDALRPDVWLLRNDAHSLYHKRSPPAKESALSKCQSCGLSCSSSLCQRCDSLLTCPPASKPSAFPSKASTHDSLAHGASLREKYPGQTQGLDRLPHLHSKSKPSTTPTSRCGFCNRPGATNTCTQCSKVSCDACLSAYHYDPCYKKSELHKFMPNNQLNYKSTQLSHLVYR

- binding [3]: no binding
B2: SPATA2 PUB domain (aa 1–241) (domain or fragment, UniProt Q9UM82 1-241)
chain: T3 sequence

The remaining lines, values behind:

B3: CYLD USP domain I790D (domain or fragment, UniProt Q9NQC7 583-956)
chain: GLEIMIGKKKGIQGHYNSCYLDSTLFCLFAFSSVLDTVLLRPKEKNDVEYYSETQELLRTEIVNPLRIYGYVCATKIMKLRKILEKVEAASGFTSEEKDPEEFLNILFHHILRVEPLLKIRSAGQKVQDCYFYQIFMEKNEKVGVPTIQQLLEWSFINSNLKFAEAPSCLIIQMPRFGKDFKLFKKIFPSLELNITDLLEDTPRQCRDCGGLAMYECRECYDDPDISAGKIKQFCKTCNTQVHLHPKRLNHKYNPVSLPKDLPDWDWRHGCIPCQNMELFAVLCIETSHYVAFVKYGKDDSAWLFFDSMADRDGGQNGFNIPQVTPCPEVGEYLKMSLEDLHSLDSRRIQGCARRLLCDAYMCMYQSPTMSLYK
- binding [4]: no binding

B4: CYLD B-box domain (aa 778–855) (domain or fragment, UniProt Q9NQC7 778-855)
chain: TDLLEDTPRQCRICGGLAMYECRECYDDPDISAGKIKQFCKTCNTQVHLHPKRLNHKYNPVSLPKDLPDWDWRHGCIP
modifications: 15N-labelled in the NMR titration
- binding [5]: no binding
- binding [6]: no binding
